From PubChem BioAssay AID1030 (National Center for Advancing Translational Sciences (NCATS), 2008)
About 16,000 (7.3%) of roughly 220,000 compounds were called active. The shares of active, inactive and inconclusive entries below differ from those in the screen. Calls come from the whole dose curve; as a rule, active = well fitted inhibition curve with a large enough effect (not every such curve was filed as active); inconclusive = small, poorly fitted or top-dose-only effect, or another doubt; inactive = no such curve, though single readings can be large or run the other way. Potencies of inconclusive entries are left out as doubtful fits.

Each molecule was assayed against Aldehyde dehydrogenase 1A1 (Homo sapiens) (UniProt P00352) (assay: qHTS Assay for Inhibitors of Aldehyde Dehydrogenase 1 (ALDH1A1)). Details: Purified ALDH1A1, NADH fluorescence, propionaldehyde substrate; series mostly up to 75.3 µM.
Potency is the fitted concentration of half-maximal effect; tags give direction and shape of the fitted curve.

UniProt P00352, sequence (P00352 whole entry, looked up): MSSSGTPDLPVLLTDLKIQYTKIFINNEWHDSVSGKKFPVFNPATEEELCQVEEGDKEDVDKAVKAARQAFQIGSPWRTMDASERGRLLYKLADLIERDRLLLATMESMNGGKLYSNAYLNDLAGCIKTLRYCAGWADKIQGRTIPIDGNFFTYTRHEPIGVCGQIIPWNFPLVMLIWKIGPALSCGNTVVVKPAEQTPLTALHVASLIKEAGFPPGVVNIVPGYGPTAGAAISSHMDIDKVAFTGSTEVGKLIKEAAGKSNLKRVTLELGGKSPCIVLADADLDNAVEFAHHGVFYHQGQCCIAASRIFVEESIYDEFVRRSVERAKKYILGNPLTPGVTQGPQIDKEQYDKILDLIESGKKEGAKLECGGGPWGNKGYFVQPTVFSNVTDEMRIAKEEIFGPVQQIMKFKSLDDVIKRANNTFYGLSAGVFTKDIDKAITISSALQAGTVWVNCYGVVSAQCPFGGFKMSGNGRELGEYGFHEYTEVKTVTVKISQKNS

Row | Compound | Potency
1 | NC(=O)COC(=O)/C=C/c1ccc2ccccc2n1 | inactive
2 | CC1(C)Oc2ccc(C#N)cc2[C@@H](OC2=CC(=O)CC2)[C@@H]1O | inactive
3 | C=CCN=C(CC)C1=C(O)CCCC1=O | inactive
4 | Cc1ccc(C(=O)NNC(=O)c2ccc(SCC3CCCO3)c([N+](=O)[O-])c2)cc1 (stereo not drawn) | inconclusive [inhibitor, single point]
5 | Cc1ccc2nc(C)c(C(=O)N/N=C/c3ccc(N4CCOCC4)cc3)cc2c1 | inconclusive [inhibitor, single point]
6 | CN(C)N1C(N)=C(C#N)C(c2cccnc2)C2=C1CCCC2=O (stereo not drawn) | inconclusive [inhibitor, single point]
7 | Cc1ccc[n+](CC(=O)Nc2c(Cl)cc(Cl)cc2Cl)c1 | inactive
8 | O=C(/C=C/c1ccccc1)N1CCN(Cc2nc3ccccc3c(=O)[nH]2)CC1 | inconclusive [inhibitor, single point]
9 | CC1=CC2C(CC1=O)C(C)=CCC2C(C)C (stereo not drawn) | inactive
10 | O=C(CNCc1ccccc1)Nc1ccccc1-c1ccccc1 | inconclusive [inhibitor, single point]
11 | N#C/C(=C/c1ccccc1[N+](=O)[O-])c1nnc2n1CCCCC2 | active: 22.4 µM
12 | COc1ccc2cc(C(=O)C3CCCN(Cc4cnc(N5CCOCC5)s4)C3)ccc2c1 (stereo not drawn) | inconclusive [inhibitor, single point]
13 | Cc1cc(/C=N/NC(=O)c2cccc(N(C)C)c2)c(C)n1-c1cc(C(=O)O)cc(C(=O)O)c1 | inactive
14 | CCOC1=NC(C(=O)O)c2ccccc2/C(=C(/C)Cl)N1 (stereo not drawn) | active: 3.98 µM
15 | O=C(CN1C(=O)c2ccccc2S1(=O)=O)N1CCN(c2ccccc2F)CC1 | inconclusive [inhibitor, single point]
16 | CN(C)CCN=Cc1c(O)n(Cc2ccccc2)c(=O)c2ccccc12 | inconclusive [inhibitor, single point]
17 | COc1ccc2[nH]cc(CCNS(=O)(=O)c3ccccc3)c2c1 | inconclusive [inhibitor, single point]
18 | CN(Cc1nc2c(s1)CCCC2)C(=O)CCc1nnc(-c2ccccc2)o1 | inconclusive [inhibitor, partial curve]
19 | O=C(CSc1nc2ccccc2n1S(=O)(=O)c1cccc([N+](=O)[O-])c1)NCc1cccs1 | inconclusive [inhibitor, single point]
20 | Cc1ccc(OCC(=O)N/N=C/c2ccccc2)c([N+](=O)[O-])c1 | inactive
21 | COc1cc(NC(=S)NC2CC2)c(OC)cc1Cl | inconclusive [inhibitor, single point]
22 | CCC(=O)NC(=S)Nc1cccc(NC(=O)c2ccccc2Cl)c1 | inconclusive [inhibitor, partial curve]
23 | CCOC(=O)c1ccc(NC(=O)c2nccnc2C(=O)O)cc1 | inactive
24 | Cc1nn(-c2cc(N3CCNCC3)ccc2[N+](=O)[O-])c(=O)c2ccccc12 | inconclusive [inhibitor, single point]
25 | Cc1nc(N2CCN(Cc3ccccc3)CC2)c(C#N)c2c1COC(C)(C)C2 | inconclusive [inhibitor, single point]

Row | Compound | Potency
26 | Cn1cc([N+](=O)[O-])c(C(=O)Nc2cc(Oc3cccnc3)cc([N+](=O)[O-])c2)n1 | active: 12.6 µM
27 | O=C(Nc1c2c(nc3ccccc13)CCCC2)c1cccc([N+](=O)[O-])c1 | inactive
28 | CSCCC(NC(=O)c1ccco1)C(=O)OCC(=O)Nc1ncc(Cl)c(C)c1Cl (stereo not drawn) | active: 22.4 µM
29 | CCn1cc(/C=N\NC(=O)c2ccc(F)cc2)cn1 | inactive
30 | CCc1nc(NCc2ccccc2)c(C#N)c2c1CCCC2 | inconclusive [inhibitor, single point]
31 | CCOC(=O)C1=C(C)N(C)C(=O)NC1c1c(C)nn(-c2ccccc2)c1C (stereo not drawn) | inactive
32 | Fc1ccccc1/C=C1\CCCC2=C1Nc1ncnn1C2c1ccccc1F (stereo not drawn) | inconclusive [inhibitor, partial curve]
33 | CCOC(=O)c1cc2c(=O)n3cccc(C)c3nc2n(CC(C)C)c1=NC(=O)c1ccco1 | inconclusive [inhibitor, single point]
34 | COc1ccc(CCNC(=O)COC(=O)Cn2cnc3ccccc32)cc1OC | inconclusive [inhibitor, single point]
35 | O=C1CCCC2=C1C(c1ccncc1)n1c(nc3ccccc31)N2 (stereo not drawn) | inconclusive [inhibitor, partial curve]
36 | Cc1cccc(N2CCN(C(=O)/C=C/c3ccco3)CC2)c1C | inconclusive [inhibitor, single point]
37 | COC(=O)CCC(=O)Nc1sc(C)c(C)c1C(N)=O | active: 12.6 µM
38 | c1ccc(Cn2c(-c3ccco3)nc3nc4ccccc4nc32)cc1 | inconclusive [inhibitor, partial curve]
39 | COc1ccc(N2C(=O)c3cccc4cccc(c34)C2=O)nn1 | inconclusive [inhibitor, partial curve]
40 | CCN(CC(=O)NC(C)(C)C)C(=O)c1ccc2c(c1)S(=O)(=O)c1ccccc1C2=O | inactive
41 | CS(=O)(=O)N1CCCC(C(=O)NCCCN2CCN(Cc3ccccc3)CC2)C1 (stereo not drawn) | inconclusive [inhibitor, single point]
42 | Cc1ccc(S(=O)(=O)Nc2cc(C(F)(F)F)ccc2N2CCOCC2)cc1C | inconclusive [inhibitor, partial curve]
43 | CCOC(=O)c1cnc(-n2nc(C)cc2C)nc1Nc1ccc2c(c1)OCO2 | inconclusive [inhibitor, partial curve, poor fit]
44 | COc1ccc(O)c(-c2c(-c3ccc(Cl)cc3)n[nH]c2C)c1 | inactive
45 | Cc1ccc(OCC(=O)N2CC3(C)CC2CC(C)(C)C3)cc1 (stereo not drawn) | inactive
46 | COC(=O)c1cc(Br)c(=O)n(Cc2ccc(OC)c(OC)c2)c1 | inactive
47 | COc1cccc(CN2CCNC(=O)C2CC(=O)NCCn2ccc3ccccc32)c1OC (stereo not drawn) | inconclusive [inhibitor, single point]
48 | CC(=O)OCC1(C)CN(c2ccccc2)N(C(C)=O)C1=O (stereo not drawn) | inconclusive [inhibitor, single point]
49 | CCOc1cc(C(=O)NCc2ccc(-c3nc4ccccc4o3)cc2)cc(OCC)c1OCC | inactive
50 | Cc1c(C(=O)N2CCCC2)sc(NC(=O)c2ccco2)c1C#N | inconclusive [inhibitor, partial curve, poor fit]

Row | Compound | Potency
51 | COc1ccc(C(=O)N2CCC3(CC2)CCN(C(c2ccccc2)c2ccccc2)CC3)cc1 | inactive
52 | C#CCOCCOCCOCCNc1nc(N2CCN(C(=O)[C@H](CCC(=O)O)n3cc(C(N)CC(C)C)nn3)CC2)nc(N2CCN(C(=O)[C@H](CCC(=O)O)n3cc(C(N)[C@H](C)CC)nn3)CC2)n1 (stereo partly drawn) | inactive
53 | CC(=O)c1c(C)oc2c1C(=O)c1ccccc1C2=O | inactive
54 | CS(=O)(=O)c1ccc(C(=O)NCc2ccccc2F)cc1 | inactive
55 | O=C(CN1CCCC1)Nc1ccc2c(c1)CCC2 | inconclusive [inhibitor, partial curve, poor fit]
56 | NC(=S)N/N=C/c1ccc(-c2ccccc2)o1 | inactive
57 | Cc1nc2sc3c(O)cc(=O)[nH]c3c2c(C)c1C | inconclusive [inhibitor, partial curve]
58 | Cc1sc2c(=O)n3c(nc2c1C(=O)NC1CCCCC1)CCCCC3 | inconclusive [inhibitor, partial curve]
59 | CCC(C)[C@@H](N)C(=O)O (stereo partly drawn) | inactive
60 | C=CCNC1=C(Cl)C(=O)N(c2ccccc2Cl)C1=O | active: 25.1 µM
61 | Cc1cc(C(=O)COC(=O)CCc2nc3ccccc3s2)c(C)n1C | inconclusive [inhibitor, single point]
62 | Cc1ccccc1NC(=S)Nc1cccc2cnccc12 | inconclusive [inhibitor, single point]
63 | N#CCCn1c(=O)cnc2cnc(N3CCOCC3)nc21 | inconclusive [inhibitor, partial curve]
64 | N#Cc1ccccc1-c1ccc2ncnc(NCc3cccnc3)c2c1 | inconclusive [inhibitor, partial curve]
65 | O=C(CC12CC3CC(CC(C3)C1)C2)NCc1ccncc1 | inactive
66 | N#Cc1c(/N=C\c2ccc(O)c([N+](=O)[O-])c2)sc2c1CCCC2 | active: 2.51 µM
67 | Cc1nn(C)cc1C(C(=O)NC1CCCCC1)N(C(=O)Cc1cccs1)c1ccc(Cl)cc1 (stereo not drawn) | inactive
68 | Oc1ccc(Br)cc1C=Nc1ccc2c3c(cccc13)CC2 | inconclusive [inhibitor, partial curve]
69 | O=C(O)c1cccc(N2C(=O)c3cccc4c(Cl)ccc(c34)C2=O)c1 | inconclusive [inhibitor, partial curve]
70 | O=C(N/N=C/c1ccc(N2CCOCC2)o1)c1cccc(C(F)(F)F)c1 | inconclusive [inhibitor, single point]
71 | CCOc1ccc(NC(=S)NC(=O)c2c(Br)cnn2C)c([N+](=O)[O-])c1 | inconclusive [inhibitor, single point]
72 | CN(c1ccccc1)S(=O)(=O)c1cccc(NC(=O)CSc2ncn[nH]2)c1 | inactive
73 | Cc1c(C(=O)NCc2ccco2)oc2ccc(S(=O)(=O)N3CCC4(CC3)OCCO4)cc12 | inconclusive [inhibitor, partial curve]
